# Assay results taken from article PMC4336329 (PLoS ONE, 2015).
# Among all 310,000 compounds or so, about 2,200 (0.71%) showed an effect of 50% or more. The effect is printed as a negative number. The list shows a part of the results.
# Molecular target: human ether-à-go-go-related gene (hERG) potassium channel (human, UniProt Q12809)
# Experiment: primary screen, population patch clamp on CHO cells stably expressing hERG
# Chain of human ether-à-go-go-related gene (hERG) potassium channel (Q12809 whole entry, looked up): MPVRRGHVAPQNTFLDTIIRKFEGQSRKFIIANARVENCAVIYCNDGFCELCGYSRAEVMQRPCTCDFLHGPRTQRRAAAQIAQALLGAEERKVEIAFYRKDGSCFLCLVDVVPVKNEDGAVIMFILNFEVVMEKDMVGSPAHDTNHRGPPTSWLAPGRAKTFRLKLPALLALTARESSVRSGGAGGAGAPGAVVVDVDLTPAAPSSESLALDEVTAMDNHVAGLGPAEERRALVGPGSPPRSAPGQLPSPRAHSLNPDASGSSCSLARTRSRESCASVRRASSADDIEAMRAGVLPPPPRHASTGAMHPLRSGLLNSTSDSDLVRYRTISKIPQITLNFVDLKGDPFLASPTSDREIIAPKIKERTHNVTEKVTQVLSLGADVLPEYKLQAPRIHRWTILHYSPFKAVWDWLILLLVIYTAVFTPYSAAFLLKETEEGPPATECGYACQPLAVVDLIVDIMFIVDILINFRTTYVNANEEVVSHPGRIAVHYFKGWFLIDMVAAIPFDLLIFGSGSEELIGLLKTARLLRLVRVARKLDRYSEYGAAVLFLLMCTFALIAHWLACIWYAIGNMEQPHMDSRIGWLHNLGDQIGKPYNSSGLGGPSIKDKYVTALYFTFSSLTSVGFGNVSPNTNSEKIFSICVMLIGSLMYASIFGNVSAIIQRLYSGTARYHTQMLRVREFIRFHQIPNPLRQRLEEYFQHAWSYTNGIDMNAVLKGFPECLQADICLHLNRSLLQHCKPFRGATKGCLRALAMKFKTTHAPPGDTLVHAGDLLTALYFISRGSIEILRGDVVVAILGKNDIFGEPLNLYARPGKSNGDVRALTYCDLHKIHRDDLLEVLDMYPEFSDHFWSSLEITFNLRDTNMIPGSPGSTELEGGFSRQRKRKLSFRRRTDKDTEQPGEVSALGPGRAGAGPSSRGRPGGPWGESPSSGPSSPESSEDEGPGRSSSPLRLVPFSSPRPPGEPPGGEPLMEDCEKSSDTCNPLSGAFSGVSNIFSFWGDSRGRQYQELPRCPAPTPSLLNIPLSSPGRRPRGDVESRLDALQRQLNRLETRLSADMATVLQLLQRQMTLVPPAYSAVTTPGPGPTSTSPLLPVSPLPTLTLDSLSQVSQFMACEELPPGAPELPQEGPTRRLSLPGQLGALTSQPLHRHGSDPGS
row,SMILES,"hERG current change (%, negative = inhibition) at 1uM"
1,COc1ccc(Nc2oc(-c3cccs3)nc2C#N)cc1,12.1%
2,N#Cc1ccccc1OCC(=O)OCC(=O)c1ccc[nH]1,8.07%
3,CN(C)C=Nc1ncc2c3ccccc3n(CCN(C)C)c2c1C#N,-2.27%
4,Cc1c(Br)c(C(N)=O)nn1C,11.8%
5,COc1ccc(-c2cc(C)no2)cc1S(=O)(=O)N1CCN(c2ccc([N+](=O)[O-])cc2)CC1,-42%
6,CCOc1cccc(/C=N/N2C(=O)CSC2=S)c1O,5.55%
7,COc1ccc(OC)c(C(=O)NC2CCSc3ccccc32)c1 (centres unmarked),15.9%
8,COc1ccccc1OCCCCOc1ccccc1F,14.6%
9,CCOc1ccc(CN2C(=O)CCC2(C)C(=O)NCc2cccnc2)cc1 (centres unmarked),-9.1%
10,COC(=O)c1c(CSc2ccc(Cl)cc2)noc1C(=O)NCc1ccco1,11.2%
11,Cc1ccc(S(=O)(=O)NCCC(=O)N2CCN(C/C=C/c3ccccc3)CC2)cc1,3.89%
12,CCOC(=O)N1CCC(N2Cc3cccc(C(=O)Nc4ccc(F)cc4)c3C2=O)CC1,-36.3%
13,CCOC(=O)c1sc(NC(=O)c2ccc(S(=O)(=O)N(C)C)cc2)cc1C,12.5%
14,C=CCSC1=C(C#N)C(c2cc(Br)c(O)c(OC)c2)CC(=O)N1 (centres unmarked),2.7%
15,O=C(NCCC1CCCCN1S(=O)(=O)c1cccs1)C(=O)Nc1ccccc1F (centres unmarked),1.95%
16,Cc1ccc(NC(=O)C(C)Sc2nnc(-c3cccnc3)o2)cc1 (centres unmarked),14%
17,COc1ccc(-n2ncc(C(=O)NC3CC3)c2C2CCN(C(=O)OC(C)(C)C)CC2)cc1,7.38%
18,Cc1ccc(/C(O)=C2\C(=O)C(=O)N(C)C2c2ccc([N+](=O)[O-])cc2)cc1 (centres unmarked),12.2%
19,Cc1ccc(/C=C/C(=O)c2ccc(C)cc2)cc1,19.2%
20,CCN(c1cccc(C)c1)S(=O)(=O)c1cc2c3c(c1)CCC(=O)N3CCC2,4.65%
21,CCOc1ccc(C(=O)NCC(=O)NCCCSc2ccccc2)cc1OCC,3.75%
22,CCC(=O)Nc1ccc(-c2nnc(SCc3ccc(C(=O)Nc4nccs4)cc3)n2CC)cc1,13.9%

row,SMILES,"hERG current change (%, negative = inhibition) at 1uM"
1,CCS(=O)(=O)c1ccc2oc(Nc3ccc(OC)cc3)nc2c1,9.43%
2,O=C(CCCc1ccccc1)NCCS(=O)(=O)N1CCN(c2ccccc2F)CC1,-3.51%
3,O=C(Nc1cccn2ncnc12)c1ccc(Cl)cc1Cl,7.12%
4,CCOC(=O)C1CCCN(C(=O)Nc2ccccc2)C1 (centres unmarked),-1.3%
5,NS(=O)(=O)c1cccc(NC(=O)CSc2nc3ccccc3[nH]2)c1,9.28%
6,COc1cccc(-n2c(Cc3cc(=O)[nH]c(=O)[nH]3)nnc2SCC(=O)NC2CCCCC2)c1,9.6%
7,O=C(C1CCCCN1S(=O)(=O)c1ccccc1[N+](=O)[O-])N1CCCC1 (centres unmarked),8.24%
8,O=C(NCCCc1ccccc1)c1cccc([N+](=O)[O-])c1,6.54%
9,CCCCOc1ccc(NC(=O)C2OC3OC(C)(C)OC3C3OC(C)(C)OC23)cc1 (centres unmarked),9.6%
10,COc1cccc(Cn2nc(C(=O)O)c3ccccc3c2=O)c1,13.8%
11,C=C(C)c1cccc(C(C)(C)NC(=O)NC2CCN(Cc3ccccc3)CC2)c1.Cl,-32.2%
12,Cc1noc(C)c1S(=O)(=O)N1CCC(C(=O)c2ccccc2)CC1,-9.1%
13,CC(C)(C)C(=O)Nc1nnc(Cc2ccccc2)s1,10.4%
14,Cc1ccc(-n2nnc(-c3cccnc3Cl)n2)cc1,21%
15,COc1cccc(/C=N/Nc2nn3cnnc3c3ccccc23)c1O,1.31%
16,O=C(N/N=C/c1cn(-c2cccs2)nc1-c1ccccc1)c1ccccc1Cl,0.0242%
17,Cc1c(CC(=O)NCCCC(=O)O)c(=O)oc2cc3occ(-c4ccccc4)c3cc12,6.23%
18,CCCCNC(=O)C1CCCN1C(=O)Nc1cccc(OC)c1 (centres unmarked),11.2%
19,O=C(NNC(=S)NC(=O)c1ccc(Br)cc1)c1ccc([N+](=O)[O-])cc1,15.6%
20,COc1cccc(NC(=O)Cn2nnc(C(=O)Nc3ccccc3)c2N)c1,5.52%
21,CCOc1ccccc1/C=N/NC(=O)CNC(=O)c1cccs1,-3.7%
22,COc1ccccc1-c1nnc(SCC(=O)NC2CCCCC2)n1C,19.7%
